{"source": "paper PMC4336329", "about": "(PLoS ONE, 2015)", "note": "The whole screen tested about 310,000 compounds, of which about 14,000 (4.5%) showed an effect of 50% or more. Effects have a minus sign here. This is one part of the list.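 Also: peak tail current of the secondary pulse compared with the same well before compound.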"}
{"target": "human ether-à-go-go-related gene (hERG) potassium channel (human, UniProt Q12809)", "sequence (Q12809 whole entry, looked up)": "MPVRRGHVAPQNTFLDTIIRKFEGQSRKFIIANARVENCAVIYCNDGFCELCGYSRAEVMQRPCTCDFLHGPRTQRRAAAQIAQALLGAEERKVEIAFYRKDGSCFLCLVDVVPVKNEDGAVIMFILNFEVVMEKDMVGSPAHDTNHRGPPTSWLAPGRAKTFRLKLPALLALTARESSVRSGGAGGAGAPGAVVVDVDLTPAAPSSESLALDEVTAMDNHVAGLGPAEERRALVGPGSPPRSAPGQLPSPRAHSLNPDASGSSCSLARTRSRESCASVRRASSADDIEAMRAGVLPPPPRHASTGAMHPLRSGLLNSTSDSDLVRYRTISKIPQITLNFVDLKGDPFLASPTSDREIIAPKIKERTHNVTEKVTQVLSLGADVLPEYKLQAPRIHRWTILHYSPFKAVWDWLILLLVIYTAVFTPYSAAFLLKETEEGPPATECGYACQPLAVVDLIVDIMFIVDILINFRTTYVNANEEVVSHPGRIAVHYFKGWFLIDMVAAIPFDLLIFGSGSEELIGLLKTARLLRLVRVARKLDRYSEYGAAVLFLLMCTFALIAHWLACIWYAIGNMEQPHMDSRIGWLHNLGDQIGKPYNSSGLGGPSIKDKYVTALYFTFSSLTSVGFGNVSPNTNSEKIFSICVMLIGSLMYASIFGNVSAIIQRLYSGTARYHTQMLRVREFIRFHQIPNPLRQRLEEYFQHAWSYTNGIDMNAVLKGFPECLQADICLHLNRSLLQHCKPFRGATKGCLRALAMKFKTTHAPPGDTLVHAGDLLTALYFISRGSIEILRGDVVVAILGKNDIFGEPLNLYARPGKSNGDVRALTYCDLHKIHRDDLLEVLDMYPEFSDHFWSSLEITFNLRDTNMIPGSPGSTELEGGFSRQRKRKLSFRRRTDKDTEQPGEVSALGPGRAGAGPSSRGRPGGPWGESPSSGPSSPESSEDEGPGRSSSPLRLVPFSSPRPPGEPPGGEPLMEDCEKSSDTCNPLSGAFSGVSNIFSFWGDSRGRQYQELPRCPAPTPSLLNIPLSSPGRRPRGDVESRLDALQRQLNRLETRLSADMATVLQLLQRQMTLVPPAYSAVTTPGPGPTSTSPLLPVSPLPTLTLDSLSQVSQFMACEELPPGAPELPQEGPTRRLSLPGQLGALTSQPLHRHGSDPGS", "assay": "primary screen, population patch clamp on CHO cells stably expressing hERG", "units": {"hERG current change (%, negative = inhibition) at 10uM": "%"}}
{"smiles": "O=C(CNC(=O)c1ccc(Br)cc1)NCC(=O)OCc1ccc(Cl)cc1", "hERG current change (%, negative = inhibition) at 10uM": 8.42}
{"smiles": "COCc1cc(=O)n2[nH]c(C(F)(F)F)nc2n1", "hERG current change (%, negative = inhibition) at 10uM": 10.4}
{"smiles": "c1ccc(CCNc2nc(-c3ccncc3)cs2)cc1", "hERG current change (%, negative = inhibition) at 10uM": 4.56}
{"smiles": "CCOC(=O)c1ccccc1NC(=S)N1CCC(N2CCCCC2)CC1", "hERG current change (%, negative = inhibition) at 10uM": -33.8}
{"smiles": "O=C1CSC2=NCN(c3ccccc3)CN12", "hERG current change (%, negative = inhibition) at 10uM": 20.3}
{"smiles": "Fc1cccc(-c2cc3nc4c(c(N5CCOCC5)n3n2)CCCC4)c1", "hERG current change (%, negative = inhibition) at 10uM": -24.1}
{"smiles": "COc1cccc(NC(=O)CNC(=O)c2ccc([N+](=O)[O-])cc2)c1", "hERG current change (%, negative = inhibition) at 10uM": -11.4}
{"smiles": "COc1cccc(S(=O)(=O)N2CCN(C(=O)c3ccco3)CC2)c1", "hERG current change (%, negative = inhibition) at 10uM": 9.1}
{"smiles": "CC(C)NC(=O)COc1ccc(Cl)cc1Cl", "hERG current change (%, negative = inhibition) at 10uM": 2.51}
{"smiles": "Cc1ccc(CN2CCN(Cc3nc4c(s3)CCCC4)CC2CCO)cc1", "note": "(stereo not shown)", "hERG current change (%, negative = inhibition) at 10uM": -55.3}
{"smiles": "O=C1CCCCCN1Sc1ccccc1", "hERG current change (%, negative = inhibition) at 10uM": 12}
{"smiles": "Cc1c2cnn(CC(=O)N3CCC4(CC3)OCCO4)c(=O)c2c(C)n1Cc1ccccc1F", "hERG current change (%, negative = inhibition) at 10uM": 6.7}
{"smiles": "CC(=O)c1ccc(Nc2ncnc3c2oc2ccccc23)cc1", "hERG current change (%, negative = inhibition) at 10uM": 7.05}
{"smiles": "Cc1cccc(-n2nc3c(c2NC(=O)c2ccco2)CS(=O)(=O)C3)c1C", "hERG current change (%, negative = inhibition) at 10uM": -17.6}
{"smiles": "C[C@]12CC[C@@H]3c4ccc(O)cc4CC[C@H]3[C@@H]1CC[C@@H]2OC(=O)CCC1CCCC1", "hERG current change (%, negative = inhibition) at 10uM": 14}
{"smiles": "O=S(=O)(c1ccc(OCc2nc3ccccc3s2)c(Cl)c1)N1CCOCC1", "hERG current change (%, negative = inhibition) at 10uM": -6.73}
{"smiles": "CCn1nnnc1NCc1ccc(N2CCCC2)cc1", "hERG current change (%, negative = inhibition) at 10uM": 3.6}
{"smiles": "COc1ccc(-n2c(COc3cccc4ccccc34)nnc2SCC(=O)NCc2ccco2)cc1", "hERG current change (%, negative = inhibition) at 10uM": -21}
{"smiles": "Cc1cc(C)c(S(=O)(=O)N2CCCCCC2)cc1Br", "hERG current change (%, negative = inhibition) at 10uM": 7.45}
{"smiles": "CNC(=O)COc1coc(CN2CCN(c3cccc(Cl)c3)CC2)cc1=O", "hERG current change (%, negative = inhibition) at 10uM": 1.16}
{"smiles": "CCCCN1C(=N)C(CC)(CC)C(=O)NC1=O.Cl", "hERG current change (%, negative = inhibition) at 10uM": 29.6}
{"smiles": "CCCC(=O)Nc1cc(=O)n(C)c(=O)n1C", "hERG current change (%, negative = inhibition) at 10uM": 0.627}
{"smiles": "Br.COc1ccc(-c2cn3cc(Cl)ccc3n2)cc1OC", "hERG current change (%, negative = inhibition) at 10uM": 8.12}
{"smiles": "Cc1csc(NC(=O)CSc2nnc(NC(=O)NC(C)(C)C)s2)n1", "hERG current change (%, negative = inhibition) at 10uM": 6.74}
{"smiles": "O=C1c2ccccc2C(=O)N1Cc1nc2ccccc2c(=O)n1-c1ccc(Br)cn1", "hERG current change (%, negative = inhibition) at 10uM": -44.5}
{"smiles": "COc1ccc(NC(=O)c2oc3ccccc3c2NC(=O)C2CC2)cc1OC", "hERG current change (%, negative = inhibition) at 10uM": -6.88}
{"smiles": "O=C(NCCCN1CCCC1=O)c1cccc(C(F)(F)F)c1", "hERG current change (%, negative = inhibition) at 10uM": -3}
{"smiles": "CCN(CC)C(=O)C1CCN(Cc2ccc(OCc3ccccc3)cc2)CC1.O=C(O)C(=O)O", "hERG current change (%, negative = inhibition) at 10uM": -48.7}
{"smiles": "Cc1ccc[n+](CC(=O)/C=C2\\N(C)c3ccccc3C2(C)C)c1.[Cl-]", "hERG current change (%, negative = inhibition) at 10uM": -1.13}
{"smiles": "CCCCCCC[n+]1ccc(-c2cc[n+](CCCCCCC)cc2)cc1.[I-]", "hERG current change (%, negative = inhibition) at 10uM": 9.12}
{"smiles": "Clc1ccc(C2NCCc3sccc32)cc1", "note": "(stereo not shown)", "hERG current change (%, negative = inhibition) at 10uM": -6.6}
{"smiles": "COC(=O)C1=C(c2ccc(OC)c(OC)c2)C[C@@H]2CC[C@H]1N2C(=O)N1CCCCC1", "hERG current change (%, negative = inhibition) at 10uM": 11.2}
{"smiles": "O=C(NCC1CCN(c2ccc(S(=O)(=O)N3CCOCC3)cc2)CC1)Nc1ccccc1F", "hERG current change (%, negative = inhibition) at 10uM": -16.7}
{"smiles": "O=C(c1ccccc1)c1ccccc1C(=O)c1ccccc1", "hERG current change (%, negative = inhibition) at 10uM": -6.01}
{"smiles": "CC(C)C1C(C#N)=C(N)Oc2n[nH]c(-c3cccs3)c21", "note": "(stereo not shown)", "hERG current change (%, negative = inhibition) at 10uM": 8.19}
{"smiles": "O=c1c([N+](=O)[O-])c(O)c2cccc3c2n1CCC3", "hERG current change (%, negative = inhibition) at 10uM": 29.8}
{"smiles": "Cc1nn(C)cc1C(=O)Nc1c(C)nn(Cc2ccccc2Cl)c1C", "hERG current change (%, negative = inhibition) at 10uM": 5.51}
{"smiles": "COc1ccc(C)cc1S(=O)(=O)Nc1cccc(-c2cn3cccnc3n2)c1", "hERG current change (%, negative = inhibition) at 10uM": 2.69}
{"smiles": "COc1ccc(OCC(=O)Nc2c3c(nn2-c2ccccc2)CS(=O)(=O)C3)cc1", "hERG current change (%, negative = inhibition) at 10uM": -1.88}
{"smiles": "COc1cccc(C(=O)Nc2cc3c4c(c2)CC(=O)N4CCC3)c1", "hERG current change (%, negative = inhibition) at 10uM": 7.04}
{"smiles": "CCOC(=O)Cn1c(=O)oc2cc(S(=O)(=O)Nc3cc(OCC)ccc3OCC)ccc21", "hERG current change (%, negative = inhibition) at 10uM": -42.3}
{"smiles": "NC(=O)COc1ccc2c3c(c(=O)oc2c1)CCCCC3", "hERG current change (%, negative = inhibition) at 10uM": -4.98}
{"smiles": "O=C(Cc1ccccc1Cl)Nc1cccc(S(=O)(=O)N2CCCCCC2)c1", "hERG current change (%, negative = inhibition) at 10uM": -18.3}
{"smiles": "C[C@@H]1C=C(C(=O)O)O[C@H](OCc2ccc(CO)cc2)C1", "hERG current change (%, negative = inhibition) at 10uM": -20.5}
{"smiles": "O=C(c1ccc([N+](=O)[O-])s1)N1CCN(c2ccccc2)CC1", "hERG current change (%, negative = inhibition) at 10uM": -25.8}
{"smiles": "COc1c(C)cc(Br)cc1C(=O)O", "hERG current change (%, negative = inhibition) at 10uM": 1.82}
{"smiles": "CSCCC(NC(=O)CCC(=O)OCC(=O)[C@@]1(O)CCC2[C@@H]3CCC4=CC(=O)C=C[C@]4(C)C3[C@@H](O)C[C@@]21C)C(=O)O", "note": "(stereo partly shown)", "hERG current change (%, negative = inhibition) at 10uM": 14.9}
{"smiles": "NS(=O)(=O)c1ccc(CCNC(=O)c2coc3ccccc3c2=O)cc1", "hERG current change (%, negative = inhibition) at 10uM": -6.49}
{"smiles": "Cc1cc(C(=O)NCC(c2ccco2)N2CCCC2)c2ccccc2n1", "note": "(stereo not shown)", "hERG current change (%, negative = inhibition) at 10uM": 6.54}
{"smiles": "CC(=O)N1c2ccccc2[C@H](C)[C@H]1C", "hERG current change (%, negative = inhibition) at 10uM": 6.54}
{"smiles": "N/C(Cn1cncn1)=N\\NC(=O)c1ccc(Cl)cc1Cl", "hERG current change (%, negative = inhibition) at 10uM": 7.11}
{"smiles": "Cc1cccc(N=Cc2c(O)n(-c3ccccc3C)c(=O)[nH]c2=O)c1", "hERG current change (%, negative = inhibition) at 10uM": -5.15}
{"smiles": "Cc1[nH]c(=S)c(C#N)c(C)c1Cc1ccc(Cl)cc1Cl", "hERG current change (%, negative = inhibition) at 10uM": 22.2}
{"smiles": "CC(C)Oc1cc(O)c2c(=O)c(-c3ccc(O)cc3)coc2c1", "hERG current change (%, negative = inhibition) at 10uM": 13.1}
{"smiles": "Cc1noc(C)c1S(=O)(=O)N1CCC(C(=O)N(C)Cc2ccccc2)CC1", "hERG current change (%, negative = inhibition) at 10uM": -4.83}
{"smiles": "O=C(NCCCn1ccnc1)Nc1ccc(Cl)cc1", "hERG current change (%, negative = inhibition) at 10uM": -14.2}
{"smiles": "Cc1ccc(NC(=O)Nc2ccc3c(c2)CCC3)cc1C", "hERG current change (%, negative = inhibition) at 10uM": -22.8}
{"smiles": "CC1CCCC(C)N1C(=O)COC(=O)Cc1ccc(Cl)cc1", "note": "(stereo not shown)", "hERG current change (%, negative = inhibition) at 10uM": 2.54}
